From the RNAGym collection of RNA variant scans (doi:10.1073/pnas.2313332121)
Variants at the floor of the assay are shown more often than the library holds them.

B1: TPR 5TU (parent)
chain: GGAUCUUCUCGAUCUAACAAAAAAGACAAAUCUGCCACAAAGCUUGAGAGCAUCUUCGGAUGCAGAGGCGGCAGCCUUCGGUGGCGCGAUAGCGCCAACGUUCUCAACUAUGACACGCAAAACGCGUGCUCCGUUGAAUGGAGUUUAUCAUG

Variants of: B1
Experiment: polymerase ribozyme fitness, log enrichment relative to wild type (log ratio); higher = more active; in vitro selection for triplet polymerase activity
Outline: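 After PCR construction and transcription, each subunit's mutant library from a heterodimeric triplet polymerase ribozyme was annealed with a biotinylated primer, the partner subunit and triplets. Incubation was frozen, at −7 °C, and extended constructs were gel-excised, bound to streptavidin beads and amplified by RT-PCR, in one selection round done in triplicate. Fitness is the logarithm of a genotype's enrichment divided by that of the wild type, from inverse-variance-weighted replicate averages of Illumina-sequenced inputs and outputs. The base of the logarithm is 2, and genotypes needed ≥10 input reads and ≥1 read per output.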

Row | Variant | polymerase ribozyme fitness (log ratio)
1 | C87A A106G G124U U146C | ≤ -4.2
2 | C85U C125G | -0.638
3 | C85G C93G | -3.68
4 | C85G C87A C95A U134G A142G | ≤ -4.2
5 | C85G U135A | -3.38
6 | C85G U135C | -3.66
7 | G86A C105U | -0.138
8 | C87A C105U A122U | ≤ -4.2
9 | C85G G94A C95G U135A | -3.95
10 | C87A G133U U145C | ≤ -4.2
11 | C87U G143U | -2.69
12 | C87A C105G | ≤ -4.2
13 | G88C C105G G128C A142C | ≤ -4.2
14 | G86C U109G C118G | -3.5
15 | G88C C116U | -3.99
16 | C85G U101C U104G C131G | ≤ -4.2
17 | C85G C125A C131A C149U | ≤ -4.2
18 | C85U G143A | 0.273
19 | G88C C108G | ≤ -4.2
20 | C87U G141U | 0.462
21 | C85A G133A | ≤ -4.2

Row | Variant | polymerase ribozyme fitness (log ratio)
22 | C85U G133U G143A | ≤ -4.2
23 | C87U C96U C125U U144A | -2.68
24 | C85U C96U A98G A150G | -2.21
25 | G86U U90G U139A | ≤ -4.2
26 | C87G U111C A120U | ≤ -4.2
27 | C85G C95A A107G U109A A137U A138G | ≤ -4.2
28 | C87G U111A C118U | ≤ -4.2
29 | C87U C99U A137U | ≤ -4.2
30 | C87A G117U U135C | ≤ -4.2
31 | C87A G124A C125G | ≤ -4.2
32 | C85A G152U | -3.5
33 | C87U G94C | -2.05
34 | G86U C105A | -2.68
35 | C85U G94U A107G C114U A120U C149U | ≤ -4.2
36 | C87U A91G C105G | -4.02
37 | G86A C108G | ≤ -4.2
38 | C87A A89C C95A | ≤ -4.2
39 | G86U G92C | -2.75
40 | C85A G126C U148A | -4.13
41 | G86A A89U | -1.96
42 | G86C G124A U144A | -2.44

Row | Variant | polymerase ribozyme fitness (log ratio)
43 | C85G G133U | ≤ -4.2
44 | C85G G133A | ≤ -4.2
45 | G86U C87A C95A U104A | ≤ -4.2
46 | G88C G100U A110C | ≤ -4.2
47 | C85U A115U G140A G152C | ≤ -4.2
48 | C87G G128A | ≤ -4.2
49 | C87G G128U | ≤ -4.2
50 | G86U C149A | ≤ -4.2
51 | C85G A91C | ≤ -4.2
52 | G86A G88U A137U | ≤ -4.2
53 | C85U A89U A110C A121U G136A U146C | ≤ -4.2
54 | C85U A142G U145C C149A | ≤ -4.2
55 | C85U C116G | -0.942
56 | C85U G152U | -3.73
57 | G86A G94C C132U G141C | ≤ -4.2
58 | G86U A110U | ≤ -4.2
59 | G88A C96A C125U G126U | ≤ -4.2
60 | C87A G92A G140U | ≤ -4.2
61 | C87U A98G | -1.67
62 | G88A G92A C116A A120U C131G A147G | ≤ -4.2
63 | G88A U101A | ≤ -4.2

Row | Variant | polymerase ribozyme fitness (log ratio)
64 | C87A U101G G124A A142C | -4.02
65 | G88C G143C | -3.92
66 | C85U A91U G133U G143A | ≤ -4.2
67 | C85A U109G | -1.33
68 | G86A U102G | -4.05
69 | C85G G141C | -3.06
70 | C85U A91C U102G C105U C108G C131U | ≤ -4.2
71 | G86C U90G G140C | ≤ -4.2
72 | C87A A122C G136U | ≤ -4.2
73 | G86U A107G G143C U151A | ≤ -4.2
74 | C85U G92U C125A G136C | -3.55
75 | C87A G117A | ≤ -4.2
76 | C85G G128C | ≤ -4.2
77 | C87A C105U A107U | ≤ -4.2
78 | C85G G128C G143A U144C U146A | ≤ -4.2
79 | C87A A107C | ≤ -4.2
80 | C87A U90C G94A | ≤ -4.2
81 | C87G G143C | ≤ -4.2
82 | C85U C103U | -2.17
83 | C87U A122G | -1.83
84 | C87G U109A A122C U144A | ≤ -4.2
